# Laboratory results from article PMC4336329 (PLoS ONE, 2015).
# The whole screen tested about 310,000 compounds, of which about 2,200 (0.71%) showed an effect of 50% or more. The effect is printed as a negative number. Some of the results follow.
# Target: human ether-à-go-go-related gene (hERG) potassium channel (human, UniProt Q12809)
# Test: primary screen, population patch clamp on CHO cells stably expressing hERG
# Chain of human ether-à-go-go-related gene (hERG) potassium channel (Q12809 whole entry, looked up): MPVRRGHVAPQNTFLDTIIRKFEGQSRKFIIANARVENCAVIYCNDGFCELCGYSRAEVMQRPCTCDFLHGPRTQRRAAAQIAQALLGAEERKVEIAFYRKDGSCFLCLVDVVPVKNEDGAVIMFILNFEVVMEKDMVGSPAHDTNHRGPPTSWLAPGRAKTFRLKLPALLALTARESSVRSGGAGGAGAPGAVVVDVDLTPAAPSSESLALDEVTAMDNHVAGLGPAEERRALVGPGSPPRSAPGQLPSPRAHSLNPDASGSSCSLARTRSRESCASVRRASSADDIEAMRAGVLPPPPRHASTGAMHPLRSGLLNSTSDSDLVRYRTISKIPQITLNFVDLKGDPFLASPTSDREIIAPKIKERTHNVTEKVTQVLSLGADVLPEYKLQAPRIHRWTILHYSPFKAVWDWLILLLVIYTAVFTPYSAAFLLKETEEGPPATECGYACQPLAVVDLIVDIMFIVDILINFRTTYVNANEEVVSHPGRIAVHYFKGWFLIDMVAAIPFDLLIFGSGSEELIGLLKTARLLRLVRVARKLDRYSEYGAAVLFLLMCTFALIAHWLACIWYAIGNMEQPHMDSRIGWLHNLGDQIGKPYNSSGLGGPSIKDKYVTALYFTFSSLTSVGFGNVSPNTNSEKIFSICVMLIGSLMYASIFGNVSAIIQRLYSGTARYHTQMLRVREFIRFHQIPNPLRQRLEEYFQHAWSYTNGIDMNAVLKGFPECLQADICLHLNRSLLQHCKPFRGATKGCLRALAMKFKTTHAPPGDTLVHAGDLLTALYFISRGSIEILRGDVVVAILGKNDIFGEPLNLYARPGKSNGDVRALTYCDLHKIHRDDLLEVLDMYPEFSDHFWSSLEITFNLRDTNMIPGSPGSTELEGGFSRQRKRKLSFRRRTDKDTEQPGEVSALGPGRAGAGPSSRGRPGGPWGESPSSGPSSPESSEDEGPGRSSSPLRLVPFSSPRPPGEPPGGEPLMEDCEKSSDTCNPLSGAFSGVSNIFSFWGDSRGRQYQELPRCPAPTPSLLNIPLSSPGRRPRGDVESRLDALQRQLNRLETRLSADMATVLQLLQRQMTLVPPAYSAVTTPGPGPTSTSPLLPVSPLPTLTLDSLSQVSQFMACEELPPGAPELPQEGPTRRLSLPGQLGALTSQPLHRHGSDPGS
row,SMILES,"hERG current change (%, negative = inhibition) at 1uM"
1,CCN1C(=O)/C(=C2\C=Cc3ccccc3N2CC)OC1=S,12.5%
2,CCCn1nnnc1NC(=O)COc1ccc(Cl)c(C)c1,7.15%
3,O=C(Nc1cccc(O)c1)c1noc2c1CCc1ccccc1-2,-6.34%
4,CCc1nccn1CCC(=O)N1CCCC(N2CCN(c3ccccc3F)CC2)C1 (stereo not shown),9.56%
5,O=C(CCC(=O)N1CCN(c2ccccn2)CC1)Nc1nnc(C(F)(F)F)s1,1.38%
6,CC1CN(S(=O)(=O)c2cccc(C(=O)N(Cc3nnc(-c4ccccc4Cl)o3)C3CC3)c2)CC(C)O1 (stereo not shown),2.09%
7,Cc1ccc(NC(=O)CSc2nc3c(c(=O)n(C)c(=O)n3C)n2C)cc1,-2.58%
8,COc1ccc(NC(C)C(=O)N/N=C/c2ccccc2OCc2cccc(Br)c2)cc1 (stereo not shown),9.78%
9,C/C=C/Cn1c(SCc2ccc(Cl)cc2)nc2c1c(=O)[nH]c(=O)n2C,0.817%
10,Cc1cnc(C(=O)Oc2cccc(Cl)c2Cl)cn1,13.4%
11,Cc1noc(C)c1COc1ccccc1C(=O)N1CCN(S(=O)(=O)c2ccccc2F)CC1,4.27%
12,O=C(Nc1ccc(S(=O)(=O)NCC2CCCO2)cc1)c1cccc(F)c1 (stereo not shown),13.7%
13,CCOC(=O)c1sc(=S)n(-c2ccc(OC)cc2)c1N,12.7%
14,c1ccc(-c2cc3c(N4CCCC4)ncnc3s2)cc1,-4.18%
15,COc1ccc(C)cc1NS(=O)(=O)c1cn(C)nc1C,4.68%
16,CCCC1CCC(C2=N/C(=C\c3ccc(OC)c(OC)c3)C(=O)O2)CC1 (stereo not shown),-5.6%
17,O=C(COc1ccc2ccccc2c1)N1CCN(C(=O)c2ccco2)CC1,4.23%
18,CC1(C)N=C(N)NC(Nc2ccccc2Cl)=N1,13.7%
19,CCn1cc(C(=O)NCc2cccs2)c(=O)c2cc(S(=O)(=O)N3CCOCC3)ccc21,2.67%
20,O=C(CCC(=O)N(CC(=O)NC1CCCCC1)Cc1cccs1)Nc1ccccn1,8.18%
21,Cc1ccc(-c2ccc(S(=O)(=O)N3CCN(C)CC3)cc2)cc1,-5.84%
22,CC1CCN(C(=O)C(Cc2ccccc2)NS(=O)(=O)c2ccc3c(c2)oc(=O)n3C)CC1 (stereo not shown),7.67%

row,SMILES,"hERG current change (%, negative = inhibition) at 1uM"
1,Cc1ccc(/C=C2\SC(=S)N(CCC(=O)NNC(=O)c3ccc(O)cc3)C2=O)cc1,15.8%
2,Cc1cc(C(=O)N(C)CC2CCCN(CCc3ccc(F)cc3)C2)c(C)o1 (stereo not shown),-71.6%
3,Cc1ccc(S(=O)(=O)NCCOc2nc(N(C)C)nc(N3CCOCC3)n2)cc1,6.14%
4,Cc1cccc(NC(=O)c2cc(N3CCOCC3)nc3ccccc23)c1,3.26%
5,COc1ccc(C(=O)NC(C)c2ccc(-n3ccnc3)cc2)c(OC)c1OC (stereo not shown),-21.2%
6,O=C(CC(=O)Nc1nc(C23CC4CC(CC(C4)C2)C3)cs1)NCCO,15.2%
7,C/C(=N\OCc1ccccc1C#N)c1cc2ccccc2o1,6.54%
8,Nc1ccn([C@H]2CC[C@@H](CO)O2)c(=O)n1,18%
9,CN(CCc1cnn(C)c1)Cc1cn[nH]c1-c1ccc(-c2ccccc2)cc1,-21.1%
10,CCOC(=O)c1c(C)c(C(=O)NC(C)COC)c(C)n1C (stereo not shown),18.9%
11,CC1CCCC(C)N1C(=C(Cl)Cl)C(=C1SCCS1)[N+](=O)[O-] (stereo not shown),14.9%
12,COc1ccc(CNC(=O)CCN2C(=O)c3ccccc3S2(=O)=O)cc1,-3.38%
13,Nc1nonc1-n1nnc(C(=O)N/N=C/c2ccncc2)c1-c1cccs1,10.7%
14,Cc1ccc(C(=O)NNC(=O)C(NC(=O)c2cccc(C)c2)C(C)C)cc1 (stereo not shown),5.75%
15,COc1cc(C(=O)NCC(=O)NCC(c2ccco2)N2CCCCC2)cc(OC)c1OC (stereo not shown),8.27%
16,O=C(CSc1nnnn1C1CC1)N1CCN(Cc2ccccc2F)CC1,9.38%
17,CCC(C)NC(=O)c1ccc(CNS(=O)(=O)c2ccc3c(c2)C(C)(C)C(=O)N3C)cc1 (stereo not shown),12.1%
18,O=C(NCc1ccccn1)Nc1cccc(Cl)c1,8.41%
19,N#Cc1nc(COc2ccc(Cl)cc2)oc1NCc1ccc2c(c1)OCO2,12.7%
20,O=C(Nc1nc2ccccc2[nH]1)C1CCCO1 (stereo not shown),10.4%
21,COc1ccc(CCN2C(=O)CC(Sc3ncccc3C(=O)O)C2=O)cc1OC (stereo not shown),10.6%
22,CN(C(=O)CN1C(=O)/C(=C/c2ccc(F)cc2)SC1=S)C1CCS(=O)(=O)C1 (stereo not shown),-10%

row,SMILES,"hERG current change (%, negative = inhibition) at 1uM"
1,COc1ccc(N2CCN(S(=O)(=O)c3ccc4c(c3)NC(=O)CS4)CC2)cc1,20.2%
2,CCOC(CNC(=O)C(=O)Nc1cc2c3c(c1)CC(=O)N3CCC2)OCC,14.9%
3,COc1ccc(OC)c(NC(=O)CSc2ccccc2)c1,12.5%
4,CCOc1ccc(NCc2cccn2-c2nnc(N3CCC(C(=O)NCCCN4CCCCC4C)CC3)s2)cc1 (stereo not shown),6.42%
5,CC(NC(=O)COc1ccc(Br)cc1)C(=O)O (stereo not shown),12.1%
6,Fc1ccc2[nH]c3c(NCCN4CCOCC4)ncnc3c2c1,8.84%
7,O=C(CSc1nccn1-c1ccc(F)cc1)Nc1ccc2c(c1)OCO2,11.9%
8,Cc1cc(F)ccc1NC(=O)c1cnccn1,4.74%
9,CC(C)(C)c1cc(Cl)ccc1OCCOCCN1CCCC1.O=C(O)C(=O)O,0.044%
10,CC(C)Nc1nnc(SCC(=O)N2CCN(C(=O)c3ccco3)CC2)s1,11.6%
11,CCN(CC)S(=O)(=O)c1ccc(C(=O)NCc2n[nH]c(=S)n2-c2ccc(Cl)c(Cl)c2)cc1,15.4%
12,CC1(C)Cc2c(cnn2-c2ccccc2)C(NC(=O)c2ccc[n+]([O-])c2)C1 (stereo not shown),8.68%
13,COc1ccc(C2CC(c3cccs3)=NN2C(=O)CCl)cc1OC (stereo not shown),6.62%
14,O=C(NC(=S)Nc1ccc(CN2CCOCC2)cc1)c1ccc2c(c1)OCCO2,2.11%
15,O=c1cc(N2CCCCCC2)[nH]c(=O)n1-c1ccccc1Cl,10%
16,Oc1ccc(/C=N/Nc2ccc(C(F)(F)F)cn2)cc1,7.84%
17,CCOC(=O)C1(Cc2ccccc2C)CCCN(Cc2ccc(NC(C)=O)cc2)C1 (stereo not shown),10.6%
18,N#Cc1cc(-c2ccccc2)cnc1Sc1ccccc1,10.5%
19,CCN(CC)S(=O)(=O)c1ccc(C(=O)N2CCN(C(=O)c3ccco3)CC2)cc1,-0.0165%
20,Cc1ccc(-n2nnnc2SCC(=O)c2c(N)n(C3CC3)c(=O)[nH]c2=O)cc1,7.45%
21,CCOc1ccc(NC(=O)CN2C(=O)S/C(=C/c3cccn3C)C2=O)cc1,15.1%
22,CN(c1ccc(C(=O)NCCSC(C)(C)C)cc1)S(=O)(=O)c1ccccc1,3.6%

row,SMILES,"hERG current change (%, negative = inhibition) at 1uM"
1,Cc1ccc(S(=O)(=O)CCC(=O)OCC(=O)N2CCc3ccccc32)cc1,4.71%
2,CCNC(=O)/C(=C/c1cccc([N+](=O)[O-])c1)NC(=O)c1ccc(C)cc1,-17.3%
3,COc1cc(C2C(C(=O)c3ccc(C)o3)=C(O)C(=O)N2CCc2ccccc2)ccc1O (stereo not shown),4.12%
4,Cc1ccnc(NC(=O)C2CC(=O)N(Cc3ccccc3)C2)c1 (stereo not shown),9.18%
5,CCn1c(SCC(=O)N/N=C/c2cc(OC)c(OC)c(OC)c2)nc2ccccc21,13.8%
6,COc1ccccc1NC(=O)NC1(C(=O)N2CCOCC2)CCCCC1,14.5%
7,COc1cccc(NC(=O)CN(C)C(=O)Cc2n[nH]c(=O)c3ccccc23)c1,7.58%
8,O=C1c2ccccc2C(O)(Cc2ccccc2)N1C1CCCCC1 (stereo not shown),12%
9,CCOC(=O)c1cn(-c2c(C)n(C)n(-c3ccccc3)c2=O)c2c(F)c(F)c(F)cc2c1=O,8.38%
10,CCOc1ccccc1CN1CCN(C/C=C/c2ccc(OC)cc2)CC1CCO (stereo not shown),-13.6%
11,Fc1cccc(NCCc2c[nH]c3ccccc23)n1,16.5%
12,CCCn1c(Oc2ccccc2)nc2c1c(=O)n(C)c(=O)n2C,10.7%
13,COc1cc2c3nnc(-c4ccc(F)cc4)c-3cn(Cc3cccc(F)c3)c2cc1OC,19.1%
14,Cc1ccc(S(=O)(=O)CCc2nnc(NC(=O)COc3cccc(C)c3)s2)cc1,11.3%
15,CCCCN(C)CCCNC(=O)Cn1c(=O)sc2ccccc21,1.42%
16,CCOC(=O)c1ccccc1NCN1C(=O)CSC1=O,15.9%
17,O=S(=O)(NCCCc1ccccc1)c1ccc(Cl)cc1,-2.28%
18,CCCn1c(SCC(=O)Nc2ccc(Cl)cn2)nnc1C1CC1,16.9%
19,CCOC(=O)c1c(NC(=O)COC(=O)CNC(=O)c2ccco2)sc(C(C)=O)c1C,10.2%
20,CCC(C)NS(=O)(=O)c1ccc(OCC(=O)NCC2CCCO2)cc1 (stereo not shown),0.206%
21,O=c1oc(/C=C/c2ccccc2)nc2sc3c(c12)CCC3,7.83%
22,CCN1CCN(c2nc(Nc3cccc(F)c3)nc(N)c2[N+](=O)[O-])CC1,-16.5%
